In PubChem BioAssay AID493208 (National Center for Advancing Translational Sciences (NCATS), 2011):
Among all 44,000 compounds or so, about 340 (0.77%) were called active. About 5% were inconclusive and are not listed. The call rests on the fitted dose curve; in most records, active means well fitted inhibition curve with a large enough effect; inconclusive means small, poorly fitted or top-dose-only effect; inactive means flat fitted curve, though single readings scatter. The list shows a part of the results.

experiment: Acumen qHTS Assay for Inhibitors of the mTORC1 Signaling Pathway in MEF (Tsc2-/-, p53-/-) Cells: Sytravon; details: phospho-rpS6 immunofluorescence/PI, 24 h; series mostly up to 38.3 µM; activity change, negative = inhibition: at the top concentration;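 further: plate controls were DMSO for no effect and rapamycin for full effect; nearly all actives have a fitted effect of over 50% in size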
In short: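 Cell-based qHTS: Tsc2-/- p53-/- MEF, 24 h cpd, 37 °C; fix/perm, anti-phospho-S6 Alexa-488 + PI; Acumen 488 nm scan; pS6/PI ratio, % positive cells; rapamycin 7.5 nM = inhibition ref; PI count = viability.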

Row | Compound | activity change, negative = inhibition
1 | COc1ccc(CC(=O)Nc2sc3c(c2C(=O)Nc2c(C)cccc2C)CCCCC3)cc1 | inactive: -2.14%
2 | COc1ccc(NC(=O)CSC2=Nc3ccccc3C3=NC(CC(=O)NCc4ccc(F)cc4)C(=O)N23)cc1 (stereo unspecified) | inactive: -1.1%
3 | Cc1ccc(Cl)cc1NC(=O)C(=O)NCCc1sc(-c2ccc(F)cc2)nc1C | inactive: 0.983%
4 | COc1cccc(NC(=O)/C(C#N)=C\c2cn(Cc3ccc(Cl)cc3)c3ccccc23)c1 | inactive: 7.44%
5 | COc1ccc(CNC(=O)Cn2c(=O)oc3cc(S(=O)(=O)N4CCCC4)ccc32)cc1 | inactive: -8.22%
6 | CCCOc1ccc(C(=O)Nc2c(C(=O)c3ccc(C)cc3)oc3ccccc23)cc1 | inactive: -15.6%
7 | Cc1cc(C(F)F)n2nc(C(=O)Nc3ccc(F)c(Cl)c3)nc2n1 | inactive: -7.54%
8 | Cc1ccc(Cl)cc1N1CCN(C(=O)c2ccc(C)c(-n3c(C)nc4cccnc43)c2)CC1 | inactive: -2.97%
9 | CCc1nc2ccc(C(=O)N3CCN(c4ccc(Cl)cc4)CC3)cc2nc1CC | inactive: 2.28%
10 | CCCCc1ccc(C(=O)N/C(=C\c2ccc(C)cc2)C(=O)NC2CCCCC2)cc1 | inactive: 4.45%
11 | COc1ccc2c(C)c(CCC(=O)NCCc3ccc(Cl)cc3)c(=O)oc2c1 | inactive: 5.64%
12 | COc1cccc(Nc2nc(-c3ccccc3)c3cc(C)ccc3n2)c1 | inactive: 7.95%
13 | Cc1cccc(CNC(=O)c2ccc(Cn3c(=O)c4cccn4c4cccnc43)cc2)c1 | inactive: 5.53%
14 | O=C(CC1N=C2c3ccccc3N=C(SCc3ccccc3F)N2C1=O)NCc1cccs1 (stereo unspecified) | inactive: -0.837%
15 | COc1cc(C2CC(=O)Nc3c2c(=O)nc2c(C)cccn32)cc(OC)c1OC (stereo unspecified) | inactive: -4.95%
16 | CC1CCCCN1S(=O)(=O)c1ccc2c(c1)oc(=O)n2CC(=O)Nc1ccc(Cl)cc1 (stereo unspecified) | inactive: -7.48%
17 | Cc1ccc(NC(=O)C(Cc2ccccc2)NS(=O)(=O)c2cccc3nsnc23)c(C)c1 (stereo unspecified) | inactive: -10.9%
18 | Cc1nn2c(-c3cccc(NC(=O)c4ccc(Cl)cc4)c3)nnc2c2ccccc12 | inactive: -2.08%
19 | CCS(=O)(=O)N1CCc2cc(C(=O)Nc3cc(Cl)ccc3C)ccc21 | inactive: 0.573%
20 | CCn1c(=O)n(CC)c2cc(N3CCCCC3)c(NC(=O)Nc3cc(Cl)ccc3OC)cc21 | inactive: 3.2%
21 | CC(C)C(=O)Nc1ccc2nc(SCCOc3ccccc3)sc2c1 | inactive: -0.201%

Row | Compound | activity change, negative = inhibition
22 | CCOC(=O)c1c(C)[nH]c(CCC(=O)Nc2ccccc2C(=O)OC)c1C | inactive: -0.573%
23 | COc1ccc(-n2c(-c3ccco3)nc3c(cnn3-c3ccc(C)cc3)c2=O)cc1 | inactive: -5.62%
24 | Cc1ccc(N2CCN(C(=O)c3cn(C)c4ccc(S(=O)(=O)N(C)C5CCCCC5)cc4c3=O)CC2C)cc1 (stereo unspecified) | inactive: -0.0036%
25 | COc1ccc(CCNC(=O)CCS(=O)(=O)c2ccc3c(c2)oc(=O)n3C)cc1OC | inactive: 4.22%
26 | O=C(Nc1ccc2nn(-c3ccccc3)nc2c1)c1ccc(-c2cccc(Cl)c2)o1 | inactive: -14.4%
27 | CCOc1ccc(NS(=O)(=O)c2ccc(NC(=O)N3CCCC3)cc2)cc1 | inactive: -0.644%
28 | O=C(CSc1nnc(CNC(=O)c2c(F)cccc2Cl)o1)Nc1cccc(F)c1 | inactive: -14.1%
29 | O=C(c1cccs1)N1CCCc2cc(NS(=O)(=O)c3ccc(F)cc3)ccc21 | inactive: -5.95%
30 | COCCCNC(=O)CCc1c(C)nc2cc(-c3ccc(Cl)cc3)nn2c1C | inactive: -16.9%
31 | COc1ccccc1NC(=O)C1=C(C)Nc2nc(SCc3cc(C)ccc3C)nn2C1c1ccccc1 (stereo unspecified) | inactive: -2.69%
32 | O=C(c1ccc2c(=O)n(CCc3ccccc3)c(=O)[nH]c2c1)N1CCN(c2ccc(Cl)cc2)CC1 | inactive: -9.92%
33 | CCn1c(C)c(C)c2cc(C(=O)NCCc3ccc(C)cc3)ccc21 | inactive: -0.454%
34 | O=C1CC(c2ccc(Cl)cc2)N=C(NC(=O)c2ccccc2)N1 (stereo unspecified) | inactive: -6.08%
35 | Cc1ccccc1CS(=O)(=O)Cc1ccc(C(=O)NCc2ccc(F)cc2)o1 | inactive: 2.48%
36 | COc1cccc(NC(=O)CCNC(=O)Cn2ccc3ccccc3c2=O)c1 | inactive: 10.2%
37 | Cc1ccc(C)c(NC(=O)c2cc(=O)c3cc(C)cc(C)c3o2)c1 | inactive: 0.0842%
38 | Cc1ccc(NC(=O)Cn2c(=O)ccc3cc(S(=O)(=O)N4CCC(C)CC4)ccc32)cc1Cl | inactive: -0.31%
39 | CC(C)C(=O)OCc1cc(=O)n2nc(C3CCCCC3)sc2n1 | inactive: -5.05%
40 | COCCNc1ncnc2c1c(-c1ccccc1)cn2-c1cccc(Cl)c1 | inactive: -2.85%
41 | Cc1ccc(NC(=O)CSc2nnc(N)s2)c(C)c1 | inactive: -20.3%
42 | COc1ccc(CNC(=O)C2CCN(S(=O)(=O)c3cccc4nonc34)CC2)cc1OC | inactive: -0.0191%

Row | Compound | activity change, negative = inhibition
43 | CCc1ccc(NCc2cc3cc4c(cc3n(CC(=O)Nc3ccc(F)cc3)c2=O)OCCO4)cc1 | inactive: -18.3%
44 | Cn1ccnc1SCC(=O)Nc1cc(Cl)ccc1Cl | inactive: 3.23%
45 | CCCCNC(=O)CCc1c(C)nc2c(c(C)nn2-c2ccccc2)c1C | inactive: 4.11%
46 | CCN(CC)c1ccc(C2C(C(N)=O)=C(C)Nc3ncnn32)cc1 (stereo unspecified) | inactive: 1.23%
47 | Cc1ccc(NC(=O)C2CCCN2S(=O)(=O)c2cccc3cccnc23)cc1C (stereo unspecified) | inactive: 1.04%
48 | COc1cccc(OCc2nc3ccccc3n2CCOc2cccc(C)c2)c1 | inactive: 4.9%
49 | Cc1ccccc1CN1CCCN(CC(=O)Nc2c(C)cccc2C)S1(=O)=O | inactive: 7.49%
50 | O=C(NCCc1ccccc1)c1cc(Sc2ccc(F)cc2F)nc2ccccc12 | inactive: 11.1%
51 | COc1ccccc1N1CCN(C(CNC(=O)C(=O)NCCc2ccccc2)c2cccnc2)CC1 (stereo unspecified) | inactive: 2.89%
52 | COc1ccc(NS(=O)(=O)c2ccc3[nH]c4c(c3c2)CCCCCC4)cc1 | inactive: -39.6%
53 | Cn1c(=O)c2c(nc(SCC(=O)Nc3ccc(F)cc3)n2Cc2ccccc2)n(C)c1=O | inactive: -9.34%
54 | CCC(C(=O)Nc1ccc(C(C)=O)cc1)n1c(C)c2cnn(-c3ccccc3)c(=O)c2c1C (stereo unspecified) | inactive: -3.28%
55 | CCOc1cc(C2c3c(-c4ccccc4O)n[nH]c3C(=O)N2CCc2ccccc2)ccc1O (stereo unspecified) | inactive: 6.22%
56 | CNC(=O)COc1ccc(Nc2nnc(-c3ccc(C)c(S(=O)(=O)NC(C)(C)C)c3)c3ccccc23)cc1 | inactive: 21.4%
57 | COc1ccc(-c2cc(C(F)(F)F)nc(SCCC(=O)Nc3c(C)cccc3C)n2)cc1 | inactive: -2.47%
58 | COc1cccc(-c2ccc3c(N)c(C(=O)Nc4ccc(C)c(F)c4)sc3n2)c1 | inactive: -2.57%
59 | COc1cc(NC(=O)Cn2cc(S(=O)(=O)c3ccccc3)c(=O)c3ccccc32)cc(OC)c1 | inactive: -11.7%
60 | CCc1ccc(C2c3c(oc4ccc(C)cc4c3=O)C(=O)N2c2nc(C)c(C)s2)cc1 (stereo unspecified) | inactive: 9.99%
61 | O=C(NCC12CC3CC(CC(C3)C1)C2)c1cc2nc(-c3ccc(F)cc3)cc(C(F)(F)F)n2n1 | inactive: 2.61%
